# Laboratory results published in patent US20250129083A1, “IMIDAZOTETRAZINE COMPOUNDS AND TREATMENT OF TMZ-RESISTANT CANCERS” (THE BOARD OF TRUSTEES OF THE UNIVERSITY OF ILLINOIS, priority 2022, published 2025).
# System: linearized pBR322 plasmid DNA
# Settings: purified linearized DNA, 15 hours at 37° C.
smiles,measurement,value
"C#CCn1nnc2c(Cl)ncn2c1=O [CPZ, 8-chloro-3-(prop-2-yn-1-yl)imidazo[5,1-d][1,2,3,5]tetrazin-4(3H)-one]",DNA alkylation (streaking on gel),clear evidence of both DNA cross-linking and alkylation
same,DNA interstrand cross-linking,clear evidence of both DNA cross-linking and alkylation
